Results: PubChem BioAssay AID485297 (National Center for Advancing Translational Sciences (NCATS), 2010)
Hit rate of the full screen: of about 320,000 compounds, about 9,100 (2.8%) were called active. The inconclusive results got no clear call from the source; some entries with a clear call stand among them for comparison. The call rests on the fitted dose curve; in most records, active means well fitted activation curve with a large enough effect; inconclusive means small, poorly fitted or top-dose-only effect; inactive means no such curve, though single readings can be large or run the other way. Potencies of inconclusive entries are left out as doubtful fits.

Test: qHTS Assay for Rab9 Promoter Activators; further: nearly all actives have a fitted effect of over 60% in size
Settings: Huh7 Rab9 promoter-luciferase reporter, luminescence, 24 h; series mostly up to 9.22 µM
Procedure, shortened: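 Cell-based reporter: Huh7 stable for Rab9 promoter-driven luciferase, plated in reduced-serum medium with 10% FBS at 1500 cells/well, compound-treated 24 h at 37 °C, luminescence read after 10 min reagent.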
Potency means the concentration at half of the fitted maximal effect; tags describe the fitted curve by direction and shape.

SMILES	Potency
O=c1/c(=C/c2ccccn2)sc2nc3ccccc3n12	inconclusive [activator, single point]
C/C(=N\NC(=O)CCC(=O)Nc1ccc(C)c(C)c1)C1CC1	inactive
Cc1ncc(CO)c(CNc2ccc(-c3nc4ccccc4[nH]3)cc2)c1O	active: 1.58 µM
COc1ccc(-c2cc(C(=O)c3c(N)n(C)c(=O)n(C)c3=O)c3ccccc3n2)cc1	inconclusive [activator, partial curve]
COc1cc(C)ccc1OCc1cc(C(=O)NCc2ccncc2)no1	active: 2 µM
O=C(NCCCO)c1cc2c(cn1)[nH]c1ccccc12	inconclusive [activator, single point]
Cc1ccn2cc(C(=O)Nc3ccccc3N3CCOCC3)nc2c1	inactive
Cc1cc(-c2ccc(N3CCOCC3)cc2)nc2ccccc12	inconclusive [activator, single point]
CCCc1cc(C(=O)NCc2ccco2)no1	inconclusive [activator, partial curve]
CCOC(=O)/C(=N\Nc1ncnc2ccccc12)c1ccc(OC)cc1	active: 3.16 µM
O=C1CCCC/C1=N\Nc1ccc(C2CCCCC2)cc1	inconclusive [activator, partial curve]
COC(=O)[C@@]12CCCCN1[C@H](c1ccc(-c3ccc(F)cc3)c(OC)c1)[C@@H]1C(=O)N(C)C(=O)[C@@H]12	inactive
COc1cccc(C(=O)NC2CC3CCCC(C2)N3CC(=O)Nc2ccccc2C(F)(F)F)c1 (centres undefined)	inactive
COc1cc(/C=N/NS(=O)(=O)c2ccc(C)cc2)ccc1OCc1ccc(C(=O)O)cc1	active: 4.47 µM
CCOC(=O)c1nnn(-c2nonc2N)c1CNC(C)C	inconclusive [activator, single point]
O=C1NC(=O)c2cc(Oc3ccc([N+](=O)[O-])cc3)ccc21	inactive
CS/C(N)=N/N=C/c1c(O)ccc2ccccc12	inconclusive [activator, partial curve]
O=C(Cc1c(F)cccc1Cl)NNC(=O)c1ccncc1	inconclusive [activator, single point]
COc1ccc(-c2nc3n(c2C)Cc2ccccc2-3)cc1	inconclusive [activator, partial curve]
O=C(/C=C\Nc1ccc2c(c1)OCO2)c1ccccn1	inconclusive [activator, partial curve, poor fit]
c1ccc2c(c1)CC/C2=N/Nc1nc2ccccc2[nH]1	active: 2.51 µM
CCN(c1ccc(OC)cc1)S(=O)(=O)c1nnc(NC(=O)c2ccco2)s1	inactive
N#Cc1cc2c(nc1SCC(N)=O)CCCCC2	active: 3.16 µM
O=C(CCS(=O)(=O)c1ccccc1)Nc1ccc(-c2nc3ccccc3s2)c(O)c1	active: 1.26 µM
Cc1ccc(NC(=O)c2ccc(OCC3CCCO3)cc2)c(C)c1 (centres undefined)	inconclusive [activator, single point]

SMILES	Potency
NC(=O)c1ccccc1NC(=O)/C=C/c1c(Cl)cccc1Cl	active: 3.16 µM
Cc1ccc2c(CNCc3ccco3)cc(=O)oc2c1	inconclusive [activator, partial curve]
NS(=O)(=O)c1ccc(NC2=CC(c3ccc([N+](=O)[O-])cc3)N(c3ccc(S(N)(=O)=O)cc3)C2=O)cc1 (centres undefined)	inconclusive [activator, single point]
Cc1ccc2oc(=O)n(CCCOc3ccccc3)c2c1	inconclusive [activator, partial curve]
COC(=O)c1ccc(NC(=O)Nc2ccccc2F)cc1	active: 0.447 µM
Cc1nc(OCC(C)C)c2sc3nc4c(cc3c2n1)COC(C)(C)C4	active: 1.41 µM
O=C(N/N=C/c1ccc2nccnc2c1)c1ccccc1O	inconclusive [activator, partial curve]
CC(=O)NC12CC3CC(C1)CC(C(=O)N1CCN(S(=O)(=O)c4cccc(C(F)(F)F)c4)CC1)(C3)C2	inactive
Cc1ccc2nc3c(cc(C(=O)NCCN4CCOCC4)c(=N)n3CCCN3CCOCC3)c(=O)n2c1	inconclusive [activator, single point]
COC(=O)Cc1c(C)c2ccc(OC(C)C)cc2oc1=O	active: 3.16 µM
Cc1nc2nc(-c3ccccc3)[nH]n2c(=O)c1C	inconclusive [activator, single point]
COc1ccc(/C=C2\CCCC(C(=O)C(F)(F)F)=C2O)cc1	inconclusive [activator, single point]
Cc1c(C(=O)NCc2cccnc2)sc2nc(-c3ccccc3)cn12	inconclusive [activator, single point]
COc1cccc(Nc2ncnc3sc(C)cc23)c1	inconclusive [activator, single point]
C/C(=N\NC(=O)c1ccc2c(c1)OCO2)c1cccnc1	active: 3.55 µM
Cc1cccc(-n2ncc3c(NCCCN4CCCC4=O)ncnc32)c1	inconclusive [activator, partial curve]
O=C(c1cnn(-c2ccccc2)c1)c1cc(F)ccc1O	inconclusive [activator, single point]
Cc1ccc(Cl)c(OCC(=O)Nc2sc(C)c(C)c2C#N)c1	inconclusive [activator, full curve, poor fit]
Cc1nc(N2CCc3ccccc3C2)[nH]c(=O)c1CCC(C)C	inconclusive [activator, single point]
CCC1CN(C(=O)N2CCC(C(=O)NCc3cccc(F)c3)CC2)c2ccccc2O1 (centres undefined)	inactive
COc1ccccc1CC(=O)NCc1csc(-c2cccs2)n1	inconclusive [activator, single point]
CCCOC(=O)c1sc2nc3c(cc2c1N)C(=O)CCC3	inconclusive [activator, single point]
CSc1ccccc1NC(=O)c1cc(C(C)C)on1	inconclusive [activator, single point]
Cc1csc(N/N=C\c2cccnc2)n1	inconclusive [activator, partial curve]
COc1ccc(-c2csc(NC(=O)c3ccoc3C)n2)cc1	inconclusive [activator, partial curve]

SMILES	Potency
Cc1cc(C)n2cc(CSc3ccc(Cl)cc3)nc2n1	inactive
CCOC(=O)c1ccc(NC(=O)C23CCC(C)(C(=O)O2)C3(C)C)cc1 (centres undefined)	inconclusive [activator, partial curve]
CCOC(=O)c1csc(NC(=O)c2ccc(S(=O)(=O)N(C)C)cc2)n1	inactive
CC(=O)c1ccc(NC(=O)CSc2nccn2CCc2ccccc2)cc1	inconclusive [activator, partial curve]
O=C(N/N=C/c1ccc2c(c1)OCO2)c1ccc(COc2cccc3cccnc23)cc1	inconclusive [activator, single point]
O=C(O)c1ccccc1-c1nc2ccccc2[nH]1	inconclusive [activator, single point]
O=C(Nc1ccc(F)cc1F)NC1CCCCCCC1	inconclusive [activator, single point]
CN(Cc1ccon1)C(=O)C1CCC(=O)N(CCc2ccc(Cl)cc2)C1 (centres undefined)	inactive
CCN(CC)S(=O)(=O)c1ccc(N=Nc2c(C)[nH]n(C(N)=S)c2=O)cc1	inconclusive [activator, single point]
Cc1csc(NC(=O)Nc2ccc(Cl)cc2)n1	inconclusive [activator, single point]
Cn1ccc(C(=O)N/N=C/c2ccccc2[N+](=O)[O-])n1	inconclusive [activator, partial curve]
COC(=O)c1ccc(NC(=O)CCN2CCCCC2)cc1	inactive
CCOc1ccc(NC(=O)CN(C)CC(=O)Nc2ccc(Br)cc2F)cc1OCC	inconclusive [activator, single point]
CC(=O)Nc1ccc(C#Cc2ccc(NC(C)=O)cc2)cc1	inconclusive [activator, single point]
COc1ccc(COc2ccc3c(C)cc(=O)oc3c2)cc1	inconclusive [activator, single point]
O=C(Cc1ccccc1[N+](=O)[O-])Nc1cccc(S(=O)(=O)NC2=NCCCCC2)c1	inactive
c1ccc(-c2noc(-c3cccc4ccccc34)n2)nc1	inactive
COc1ccc(CNc2nc3ccccc3n2C)c(O)c1	active: 3.16 µM
C=CCc1ccc(OCCn2cccc2C=O)c(OC)c1	inconclusive [activator, partial curve]
CC(C)C(C(=O)NC(C)(C)C)N(CCN1CCOCC1)C(=O)CNS(=O)(=O)c1ccccc1 (centres undefined)	inconclusive [activator, single point]
c1ccc(CN2OCC3Cn4c(nc5ccccc54)C32)cc1 (centres undefined)	inactive
O=C(c1cc2nc(-c3ccccc3)cc(C(F)(F)F)n2n1)N1CCN2CCCC2C1 (centres undefined)	inconclusive [activator, single point]
CCCn1nc(NC(=O)C2CCCO2)c2cc3cc(C)ccc3nc21 (centres undefined)	inconclusive [activator, single point]
CCCOc1ccc(-c2nc(-c3ccc([N+](=O)[O-])cc3)cs2)cc1	inconclusive [activator, single point]
